According to US20100203647A1, “Chemical Reporters of Protein Acylation” (THE ROCKEFELLER UNIVERSITY, priority 2008, published 2010):
Read-outs that look alike come from different tables or passages of the source.

Key:
Jurkat T cells = assay: Metabolic labeling of Jurkat T cells with alkynyl-acetate analogs, CuAAC with az-Rho, in-gel fluorescence scanning
p300 = target: T1, p300 (Homo sapiens, UniProt Q09472); assay: In vitro acylation of histone H3 protein by p300 and mapping of modification sites (spectral counts, nano-HPLC/MS/MS); format: biochemical
T1 construct: made in house; host or cells: SF9 insect cells, baculovirus
T1 sequence (Q09472 whole entry): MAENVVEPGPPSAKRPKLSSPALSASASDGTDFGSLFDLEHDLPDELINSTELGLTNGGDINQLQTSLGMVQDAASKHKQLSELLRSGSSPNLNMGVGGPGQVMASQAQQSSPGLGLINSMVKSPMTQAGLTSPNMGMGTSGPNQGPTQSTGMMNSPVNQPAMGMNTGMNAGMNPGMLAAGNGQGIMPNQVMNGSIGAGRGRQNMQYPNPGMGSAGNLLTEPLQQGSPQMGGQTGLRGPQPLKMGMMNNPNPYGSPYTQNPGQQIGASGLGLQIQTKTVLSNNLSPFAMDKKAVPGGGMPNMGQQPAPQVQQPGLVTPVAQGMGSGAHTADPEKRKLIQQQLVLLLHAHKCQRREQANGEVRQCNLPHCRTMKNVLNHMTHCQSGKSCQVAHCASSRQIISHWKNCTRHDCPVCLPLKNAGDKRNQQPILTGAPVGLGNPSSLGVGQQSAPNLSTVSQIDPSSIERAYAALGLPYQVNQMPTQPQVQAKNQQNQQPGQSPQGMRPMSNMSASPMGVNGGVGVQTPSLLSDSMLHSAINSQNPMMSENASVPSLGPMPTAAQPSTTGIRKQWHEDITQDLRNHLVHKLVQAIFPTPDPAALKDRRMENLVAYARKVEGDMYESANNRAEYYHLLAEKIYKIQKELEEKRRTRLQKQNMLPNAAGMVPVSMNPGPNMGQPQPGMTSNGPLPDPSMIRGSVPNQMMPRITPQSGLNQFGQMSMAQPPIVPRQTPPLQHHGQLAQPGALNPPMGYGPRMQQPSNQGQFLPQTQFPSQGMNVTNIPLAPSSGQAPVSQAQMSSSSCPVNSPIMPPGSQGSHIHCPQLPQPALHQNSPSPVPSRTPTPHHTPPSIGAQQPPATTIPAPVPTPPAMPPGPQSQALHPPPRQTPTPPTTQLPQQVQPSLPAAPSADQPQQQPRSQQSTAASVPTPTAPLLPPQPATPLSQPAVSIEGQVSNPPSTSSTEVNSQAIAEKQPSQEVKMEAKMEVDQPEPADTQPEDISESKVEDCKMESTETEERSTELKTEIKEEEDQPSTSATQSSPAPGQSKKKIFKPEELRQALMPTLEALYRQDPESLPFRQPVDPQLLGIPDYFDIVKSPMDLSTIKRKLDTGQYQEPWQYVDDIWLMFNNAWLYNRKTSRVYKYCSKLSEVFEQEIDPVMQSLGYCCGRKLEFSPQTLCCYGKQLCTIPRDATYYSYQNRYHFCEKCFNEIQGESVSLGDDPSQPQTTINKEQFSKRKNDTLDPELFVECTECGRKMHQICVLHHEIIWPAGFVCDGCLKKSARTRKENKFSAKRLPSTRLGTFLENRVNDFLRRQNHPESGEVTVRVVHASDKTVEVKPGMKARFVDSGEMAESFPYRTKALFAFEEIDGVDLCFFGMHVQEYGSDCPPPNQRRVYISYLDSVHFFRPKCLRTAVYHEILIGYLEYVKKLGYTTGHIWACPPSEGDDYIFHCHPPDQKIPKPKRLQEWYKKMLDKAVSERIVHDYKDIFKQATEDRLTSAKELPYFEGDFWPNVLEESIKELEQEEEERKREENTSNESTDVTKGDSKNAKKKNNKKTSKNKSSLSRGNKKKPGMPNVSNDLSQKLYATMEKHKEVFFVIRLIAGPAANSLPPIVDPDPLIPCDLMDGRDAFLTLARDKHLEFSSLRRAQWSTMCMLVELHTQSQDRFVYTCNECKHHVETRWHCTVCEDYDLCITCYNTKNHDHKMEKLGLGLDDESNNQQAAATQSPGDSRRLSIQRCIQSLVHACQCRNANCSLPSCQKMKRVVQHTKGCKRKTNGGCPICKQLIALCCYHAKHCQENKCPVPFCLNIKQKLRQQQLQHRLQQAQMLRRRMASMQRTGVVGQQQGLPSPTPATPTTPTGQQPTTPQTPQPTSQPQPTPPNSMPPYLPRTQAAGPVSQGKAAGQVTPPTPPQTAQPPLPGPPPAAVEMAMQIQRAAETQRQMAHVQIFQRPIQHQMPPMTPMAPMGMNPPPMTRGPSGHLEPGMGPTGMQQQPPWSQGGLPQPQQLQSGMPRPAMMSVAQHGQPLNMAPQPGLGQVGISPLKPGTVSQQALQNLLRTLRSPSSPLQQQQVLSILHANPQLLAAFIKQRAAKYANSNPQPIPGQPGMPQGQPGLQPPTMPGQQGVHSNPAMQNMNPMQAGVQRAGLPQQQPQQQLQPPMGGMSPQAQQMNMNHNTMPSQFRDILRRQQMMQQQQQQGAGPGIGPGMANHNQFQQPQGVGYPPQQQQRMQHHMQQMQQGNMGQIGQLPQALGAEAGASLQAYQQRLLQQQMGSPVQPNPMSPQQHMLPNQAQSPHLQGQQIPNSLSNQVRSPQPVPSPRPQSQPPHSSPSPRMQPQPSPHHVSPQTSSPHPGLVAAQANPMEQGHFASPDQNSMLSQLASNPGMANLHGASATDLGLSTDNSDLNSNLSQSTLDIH
Protocol: Following the in vitro reaction, proteins were separated on 15% SDS-PAGE and stained with coomassie brilliant blue R-250 staining solution (Bio-Rad). The gel slices containing histone H3 products were excised from each lane, washed with 50 mM ammonium bicarbonate (ABC) twice, destained with 50 mM ABC/CH3CN (50/50) twice and dehydrated with CH3CN. After drying the gel slices in a SpeedVac, gel slices were rehydrated with trypsin solution (2 μg of trypsin for each vial/gel slice) and incubated in 37° C. water bath for 18 hrs. Trypsin-digested peptides in solution were collected, dried in SpeedVac, resuspended in H2O (with 0.1% TFA) and submitted samples to nano-HPLC/MS/MS analysis (Thermo LTQ-Orbitrap in the Proteomic Resource Center at Rockefeller University).
LC-MS analysis was performed with a Dionex 3000 nano-HPLC coupled to an LTQ-Orbitrap ion trap mass spectrometer (ThermoFisher). Peptides were pressure loaded onto a home made 75 μm diameter, 15 cm C18 reverse phase column and separated with a gradient running from 95% buffer A (HPLC water with 0.1% formic acid) and 5% buffer B (HPLC grade acetonitrile with 0.1% formic acid) to 55% B over 30 min, next ramping to 95% B over 10 min and holding 95% B for 10 min. One full MS scan (300-2000 MW) was followed by 3 data dependent scans of the nth most intense ions with dynamic exclusion enabled. The spray voltage was set to 1.94 kV and the flow rate through the column was set to 0.25 μL/min.
Raw tandem mass spectra were searched against the human IPI protein database version 3.56 using SEQUEST search engine (Thermo Scientific). Cysteine carbamido-methylation was searched as fixed modification, while methionine/tryptophan oxidation, asparagines/glutamine deamindation, lysine/serine/threonine/cysteine acetylation, N-terminal acetylation/3-butynylation/4-pentynylation/5-hexynylation and lysine 3-butynylation/4-pentynylation/5-hexynylation were searched as variable modifications. Peptide tolerance was set as 10.0 ppm, fragment ion tolerance was set as 1.0 AMU and trypsin was set as the digestion enzyme. The resulting searching files were then analyzed and visualized by Scaffold 2 proteome software.
Each identified protein must contain at least 2 unique peptides that are exclusively assigned to this protein with a minimum protein identification probability of 99%. Each peptide spectrum must meet several selection thresholds including >95% for peptide identification probability, >1.0 for SEQUEST XCorr score, and ±6 ppm for actual minus calculated peptide mass.

[1] = test system: metabolic incorporation of chemical reporters; assay: Effect of inhibitors/additives on metabolic incorporation of alkynyl-chemical reporters; format: cell-based
Jurkat cells = assay: Metabolic labeling with inhibitors; settings: CHX 10 μM, HMA 1 mM, 2-BP 50 μM, 30 minutes pre-incubation
[2] = test system: newly synthesized proteins; settings: cited from earlier work
[3] = lysine-modified peptide, H3 + acyl-CoA + p300
[4] = lysine-modified peptide, H3 + acyl-CoA, without p300

O=C(CCCCCCC(=O)Nc1ccccc1)NO [SAHA, suberoylanilide hydroxamic acid, reference compound]
acetylation level of histones (Western blot, anti-acetyl-Lys antibody) (Jurkat T cells; 10 μM SAHA, 8 hrs): elevated acetylation level of histones
effect on protein labeling with alkynyl-acetate analogs (Jurkat T cells; Jurkat T cells, 100 μM CHX, 10 μM SAHA, 8 hrs): slightly reduced

CC(=O)SCCNC(=O)CCNC(=O)[C@H](O)C(C)(C)COP(=O)(O)OP(=O)(O)OC[C@H]1O[C@@H](n2cnc3c(N)ncnc32)[C@H](O)[C@@H]1OP(=O)(O)O [AcCoA, acetyl-CoA, reference compound]
Spectral Counts of Peptide EIAQDFK (73-79) (SEQ ID NO: 7) (p300; H3 + acyl-CoA + p300): 22
Spectral Counts of Peptide KLPFQR (64-69) (SEQ ID NO: 6) (p300; H3 + acyl-CoA + p300): 1
Spectral Counts of Peptide KSAPATGGVK (27-36) (SEQ ID NO: 2) (p300; H3 + acyl-CoA + p300): 6
Spectral Counts of Peptide VTIMPK (117-122) (SEQ ID NO: 9) (p300; H3 + acyl-CoA + p300): 1
Spectral Counts of Peptide YRPGTVALR (41-49) (SEQ ID NO: 4) (p300; H3 + acyl-CoA + p300): 2
Spectral Counts of Peptide EIAQDFK (73-79) (SEQ ID NO: 7) (p300; H3 + acyl-CoA, without p300): 23
Spectral Counts of Peptide KSAPATGGVK (27-36) (SEQ ID NO: 2) (p300; H3 + acyl-CoA, without p300): 21
Spectral Counts of Peptide SAPATGGVK (28-36) SEQ ID NO: 3 (p300; H3 + acyl-CoA, without p300): 2
Spectral Counts of Peptide VTIMPK (117-122) (SEQ ID NO: 9) (p300; H3 + acyl-CoA, without p300): 10
Spectral Counts of Peptide YRPGTVALR (41-49) (SEQ ID NO: 4) (p300; H3 + acyl-CoA, without p300): 3
Spectral Counts of Peptide KQLATK (18-23, K18) (SEQ ID NO: 13) (p300; [3]): 2
Spectral Counts of Peptide KQLATKAAR (18-26, K18, K23) (SEQ ID NO: 15) (p300; [3]): 138
Spectral Counts of Peptide KSAPATGGVK (27-36, K27) (SEQ ID NO: 17) (p300; [3]): 34
Spectral Counts of Peptide KSAPATGGVK (27-36, K27, K36) (SEQ ID NO: 18) (p300; [3]): 4
Spectral Counts of Peptide KSTGGKAPR (9-17, K9, K14) (SEQ ID NO: 11) (p300; [3]): 60
Spectral Counts of Peptide KSTGGKAPR (9-17, K14) (SEQ ID NO: 10) (p300; [3]): 8
Spectral Counts of Peptide QLATKAAR (19-26, K23) (SEQ ID NO: 16) (p300; [3]): 1
Spectral Counts of Peptide RVTIMPKDIQLAR (116-128, K122) (SEQ ID NO: 22) (p300; [3]): 2
Spectral Counts of Peptide RYQKSTELLIR (53-63, K56) (SEQ ID NO: 21) (p300; [3]): 5
Spectral Counts of Peptide KQLATKAAR (18-26, K18, K23) (SEQ ID NO: 15) (p300; [4]): 4
Spectral Counts of Peptide KSAPATGGVK (27-36, K27) (SEQ ID NO: 17) (p300; [4]): 12
Spectral Counts of Peptide KSTGGKAPR (9-17, K9, K14) (SEQ ID NO: 11) (p300; [4]): 18
Spectral Counts of Peptide KSTGGKAPR (9-17, K14) (SEQ ID NO: 10) (p300; [4]): 1
Spectral Counts of Peptide RYQKSTELLIR (53-63, K56) (SEQ ID NO: 21) (p300; [4]): 2

C[C@@H]1C[C@@H]([C@H](O)CC2CC(=O)NC(=O)C2)C(=O)[C@@H](C)C1 [CHX, cycloheximide, reference compound]
effect on metabolic incorporation of alkynyl-chemical reporters (alk-4, alk-12, alk-16) [1]: did not inhibit the metabolic incorporation
effect on metabolic incorporation of alkynyl-chemical reporters (alk-4, alk-12, alk-16) ([1]; listed as cyclohexamide): still detected
effect of inhibitor on alkynyl-fatty acid protein labeling (alk-12, alk-14, alk-16, 20 μM) (Jurkat cells): abrogated the metabolic labeling of several prominent polypeptides by alk-12
effect on incorporation of methionine surrogate AHA into proteins (Jurkat T cells; 100 μM CHX, Jurkat T cells): completely blocked

[N-]=[N+]=NCC[C@H](N)C(=O)O [AHA, (S)-2-amino-4-azidobutanoic acid]
toxicity of protein synthesis reporter [2]: no observed toxicity
